These are yes or no findings as the source states them, for the method shown. For some assays here: In cells and extracts the contact can be indirect. Some results given as binding are weak or reduced against the parent protein; the word gives no strength. Where a sequence is shown, tags or fusion partners need not be part of it.
T1: Noc3-CC2Δ, two differently tagged copies (Noc3-CC2Δ-FLAG and Myc-Noc3-CC2Δ) (S. cerevisiae) (UniProt Q07896)
T1 sequence: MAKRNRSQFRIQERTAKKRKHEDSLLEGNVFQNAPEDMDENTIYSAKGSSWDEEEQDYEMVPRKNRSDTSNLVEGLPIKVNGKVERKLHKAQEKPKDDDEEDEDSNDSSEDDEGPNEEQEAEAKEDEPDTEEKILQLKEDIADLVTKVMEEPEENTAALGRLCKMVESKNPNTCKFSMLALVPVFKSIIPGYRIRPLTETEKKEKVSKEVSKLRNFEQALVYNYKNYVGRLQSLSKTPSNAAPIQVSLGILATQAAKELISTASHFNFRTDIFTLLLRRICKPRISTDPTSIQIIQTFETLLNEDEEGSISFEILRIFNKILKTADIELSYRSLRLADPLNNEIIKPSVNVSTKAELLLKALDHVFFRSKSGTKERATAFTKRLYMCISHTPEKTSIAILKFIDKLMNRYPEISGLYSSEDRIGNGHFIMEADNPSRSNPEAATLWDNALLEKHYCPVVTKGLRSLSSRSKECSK

T2: Noc3p, full length, yeast two-hybrid fusion (BD-NOC3 and AD-Noc3p) (S. cerevisiae) (UniProt Q07896)
T2 sequence: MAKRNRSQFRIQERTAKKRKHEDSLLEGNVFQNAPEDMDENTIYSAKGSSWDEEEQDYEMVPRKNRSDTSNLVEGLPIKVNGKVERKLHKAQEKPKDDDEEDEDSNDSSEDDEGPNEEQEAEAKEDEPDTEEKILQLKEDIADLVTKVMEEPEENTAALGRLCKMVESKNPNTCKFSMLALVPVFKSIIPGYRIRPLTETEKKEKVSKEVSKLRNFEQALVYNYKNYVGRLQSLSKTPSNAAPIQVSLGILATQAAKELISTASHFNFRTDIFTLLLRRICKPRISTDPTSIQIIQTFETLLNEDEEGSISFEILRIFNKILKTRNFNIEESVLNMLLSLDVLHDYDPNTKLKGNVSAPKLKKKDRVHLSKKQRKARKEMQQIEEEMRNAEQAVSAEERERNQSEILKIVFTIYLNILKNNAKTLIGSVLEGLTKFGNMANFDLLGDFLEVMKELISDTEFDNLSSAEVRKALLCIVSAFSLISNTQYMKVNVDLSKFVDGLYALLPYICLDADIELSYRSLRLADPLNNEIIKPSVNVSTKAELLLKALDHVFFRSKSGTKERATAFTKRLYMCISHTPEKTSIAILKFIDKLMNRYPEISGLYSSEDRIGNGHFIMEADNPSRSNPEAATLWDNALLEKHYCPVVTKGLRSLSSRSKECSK

T3: Noc3-CC2Δ, yeast two-hybrid fusion (BD-Noc3-CC2Δ) (S. cerevisiae) (UniProt Q07896)
T3 sequence: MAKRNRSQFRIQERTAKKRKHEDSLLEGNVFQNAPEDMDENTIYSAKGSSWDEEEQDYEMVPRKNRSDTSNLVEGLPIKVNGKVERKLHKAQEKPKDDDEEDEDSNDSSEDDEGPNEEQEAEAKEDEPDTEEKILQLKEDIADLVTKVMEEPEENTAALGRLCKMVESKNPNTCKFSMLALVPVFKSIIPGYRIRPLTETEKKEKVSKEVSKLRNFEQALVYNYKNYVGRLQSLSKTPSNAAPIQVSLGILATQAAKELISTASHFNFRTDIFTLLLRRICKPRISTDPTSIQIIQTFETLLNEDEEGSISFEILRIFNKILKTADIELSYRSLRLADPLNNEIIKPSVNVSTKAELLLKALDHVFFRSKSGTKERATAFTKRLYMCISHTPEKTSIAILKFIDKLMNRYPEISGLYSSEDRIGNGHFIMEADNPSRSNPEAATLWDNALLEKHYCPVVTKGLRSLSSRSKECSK

T4: Noc3-CC1Δ, yeast two-hybrid fusion (S. cerevisiae) (UniProt Q07896)
T4 sequence: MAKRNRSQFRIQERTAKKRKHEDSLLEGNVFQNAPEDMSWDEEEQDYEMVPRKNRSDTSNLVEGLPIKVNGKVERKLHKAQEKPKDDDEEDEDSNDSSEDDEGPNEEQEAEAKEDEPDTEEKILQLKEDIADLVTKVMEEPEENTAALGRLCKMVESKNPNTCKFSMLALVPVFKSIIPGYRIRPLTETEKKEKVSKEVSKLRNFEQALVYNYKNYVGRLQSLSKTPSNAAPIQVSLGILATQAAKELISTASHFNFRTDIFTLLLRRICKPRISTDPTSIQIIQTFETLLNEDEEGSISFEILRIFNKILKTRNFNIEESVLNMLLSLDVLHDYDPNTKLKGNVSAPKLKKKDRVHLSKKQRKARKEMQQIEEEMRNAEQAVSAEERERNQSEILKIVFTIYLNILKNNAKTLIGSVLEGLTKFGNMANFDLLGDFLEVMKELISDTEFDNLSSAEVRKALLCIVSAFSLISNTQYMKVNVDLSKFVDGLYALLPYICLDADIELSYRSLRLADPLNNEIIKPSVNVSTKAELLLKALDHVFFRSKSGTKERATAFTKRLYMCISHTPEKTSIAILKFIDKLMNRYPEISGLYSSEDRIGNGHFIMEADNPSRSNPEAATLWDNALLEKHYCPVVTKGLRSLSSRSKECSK


Assays:
[1] = target: T1, Noc3-CC2Δ, two differently tagged copies (Noc3-CC2Δ-FLAG and Myc-Noc3-CC2Δ) (S. cerevisiae); test: co-IP; cycling (asynchronous) yeast cells; DNase I–digested extracts; IP with anti-FLAG, anti-Myc or the indicated antibodies, control mouse IgG
[2] = target: T2, Noc3p, full length, yeast two-hybrid fusion (BD-NOC3 and AD-Noc3p) (S. cerevisiae); test: two-hybrid; Matchmaker system III (Clontech); BD- and AD-fusion proteins; growth on SCM-Trp-Leu-His plates; empty BD or AD vector as negative controls
[3] = target: T3, Noc3-CC2Δ, yeast two-hybrid fusion (BD-Noc3-CC2Δ) (S. cerevisiae); test: as above
[4] = target: T4, Noc3-CC1Δ, yeast two-hybrid fusion (S. cerevisiae); test: as above

binding [1] | binding [2] | binding [3] | binding [4] | Binder
binds |  |  |  | Orc3p, endogenous, in yeast cell extract (protein, UniProt P54790 1-616) MSDLNQSKKMNVSEFADAQRSHYTVYPSLPQSNKNDKHIPFVKLLSGKESEVNVEKRWELYHQLHSHFHDQVDHIIDNIEADLKAEISDLLYSETTQKRRCFNTIFLLGSDSTTKIELKDESSRYNVLIELTPKESPNVRMMLRRSMYKLYSAADAEEHPTIKYEDINDEDGDFTEQNNDVSYDLSLVENFKRLFGKDLAMVFNFKDVDSINFNTLDNFIILLKSAFKYDHVKISLIFNINTNLSNIEKNLRQSTIRLLKRNYHKLDVSSNKGFKYGNQIFQSFLDTVDGKLNLSDRFVEFILSKMANNTNHNLQLLTKMLDYSLMSYFFQNAFSVFIDPVNVDFLNDDYLKILSRCPTFMFFVEGLIKQHAPADEILSLLTNKNRGLEEFFVEFLVRENPINGHAKFVARFLEEELNITNFNLIELYHNLLIGKLDSYLDRWSACKEYKDRLHFEPIDTIFQELFTLDNRSGLLTQSIFPSYKSNIEDNLLSWEQVLPSLDKENYDTLSGDLDKIMAPVLGQLFKLYREANMTINIYDFYIAFRETLPKEEILNFIRKDPSNTKLLELAETPDAFDKVALILFMQAIFAFENMGLIKFQSTKSYDLVEKCVWRGI
 | binds | binds |  | Orc3p, yeast two-hybrid fusion (AD-Orc3p) (protein, UniProt P54790 1-616) MSDLNQSKKMNVSEFADAQRSHYTVYPSLPQSNKNDKHIPFVKLLSGKESEVNVEKRWELYHQLHSHFHDQVDHIIDNIEADLKAEISDLLYSETTQKRRCFNTIFLLGSDSTTKIELKDESSRYNVLIELTPKESPNVRMMLRRSMYKLYSAADAEEHPTIKYEDINDEDGDFTEQNNDVSYDLSLVENFKRLFGKDLAMVFNFKDVDSINFNTLDNFIILLKSAFKYDHVKISLIFNINTNLSNIEKNLRQSTIRLLKRNYHKLDVSSNKGFKYGNQIFQSFLDTVDGKLNLSDRFVEFILSKMANNTNHNLQLLTKMLDYSLMSYFFQNAFSVFIDPVNVDFLNDDYLKILSRCPTFMFFVEGLIKQHAPADEILSLLTNKNRGLEEFFVEFLVRENPINGHAKFVARFLEEELNITNFNLIELYHNLLIGKLDSYLDRWSACKEYKDRLHFEPIDTIFQELFTLDNRSGLLTQSIFPSYKSNIEDNLLSWEQVLPSLDKENYDTLSGDLDKIMAPVLGQLFKLYREANMTINIYDFYIAFRETLPKEEILNFIRKDPSNTKLLELAETPDAFDKVALILFMQAIFAFENMGLIKFQSTKSYDLVEKCVWRGI
 | binds |  |  | Noc3-F7 fragment, yeast two-hybrid fusion (domain or fragment, UniProt Q07896 326-512) NFNIEESVLNMLLSLDVLHDYDPNTKLKGNVSAPKLKKKDRVHLSKKQRKARKEMQQIEEEMRNAEQAVSAEERERNQSEILKIVFTIYLNILKNNAKTLIGSVLEGLTKFGNMANFDLLGDFLEVMKELISDTEFDNLSSAEVRKALLCIVSAFSLISNTQYMKVNVDLSKFVDGLYALLPYICLD
 | binds | no binding | binds | Noc3p, full length, yeast two-hybrid fusion (BD-NOC3 and AD-Noc3p) (protein, UniProt Q07896 1-663) MAKRNRSQFRIQERTAKKRKHEDSLLEGNVFQNAPEDMDENTIYSAKGSSWDEEEQDYEMVPRKNRSDTSNLVEGLPIKVNGKVERKLHKAQEKPKDDDEEDEDSNDSSEDDEGPNEEQEAEAKEDEPDTEEKILQLKEDIADLVTKVMEEPEENTAALGRLCKMVESKNPNTCKFSMLALVPVFKSIIPGYRIRPLTETEKKEKVSKEVSKLRNFEQALVYNYKNYVGRLQSLSKTPSNAAPIQVSLGILATQAAKELISTASHFNFRTDIFTLLLRRICKPRISTDPTSIQIIQTFETLLNEDEEGSISFEILRIFNKILKTRNFNIEESVLNMLLSLDVLHDYDPNTKLKGNVSAPKLKKKDRVHLSKKQRKARKEMQQIEEEMRNAEQAVSAEERERNQSEILKIVFTIYLNILKNNAKTLIGSVLEGLTKFGNMANFDLLGDFLEVMKELISDTEFDNLSSAEVRKALLCIVSAFSLISNTQYMKVNVDLSKFVDGLYALLPYICLDADIELSYRSLRLADPLNNEIIKPSVNVSTKAELLLKALDHVFFRSKSGTKERATAFTKRLYMCISHTPEKTSIAILKFIDKLMNRYPEISGLYSSEDRIGNGHFIMEADNPSRSNPEAATLWDNALLEKHYCPVVTKGLRSLSSRSKECSK
no binding |  |  |  | Noc3-CC2Δ, two differently tagged copies (Noc3-CC2Δ-FLAG and Myc-Noc3-CC2Δ) (protein, UniProt Q07896) MAKRNRSQFRIQERTAKKRKHEDSLLEGNVFQNAPEDMDENTIYSAKGSSWDEEEQDYEMVPRKNRSDTSNLVEGLPIKVNGKVERKLHKAQEKPKDDDEEDEDSNDSSEDDEGPNEEQEAEAKEDEPDTEEKILQLKEDIADLVTKVMEEPEENTAALGRLCKMVESKNPNTCKFSMLALVPVFKSIIPGYRIRPLTETEKKEKVSKEVSKLRNFEQALVYNYKNYVGRLQSLSKTPSNAAPIQVSLGILATQAAKELISTASHFNFRTDIFTLLLRRICKPRISTDPTSIQIIQTFETLLNEDEEGSISFEILRIFNKILKTADIELSYRSLRLADPLNNEIIKPSVNVSTKAELLLKALDHVFFRSKSGTKERATAFTKRLYMCISHTPEKTSIAILKFIDKLMNRYPEISGLYSSEDRIGNGHFIMEADNPSRSNPEAATLWDNALLEKHYCPVVTKGLRSLSSRSKECSK
binds |  |  |  | Orc2p in yeast cell extract (protein, UniProt P32833 1-620) MLNGEDFVEHNDILSSPAKSRNVTPKRVDPHGERQLRRIHSSKKNLLERISLVGNERKNTSPDPALKPKTPSKAPRKRGRPRKIQEELTDRIKKDEKDTISSKKKRKLDKDTSGNVNEESKTSNNKQVMEKTGIKEKREREKIQVATTTYEDNVTPQTDDNFVSNSPEPPEPATPSKKSLTTNHDFTSPLKQIIMNNLKEYKDSTSPGKLTLSRNFTPTPVPKNKKLYQTSETKSASSFLDTFEGYFDQRKIVRTNAKSRHTMSMAPDVTREEFSLVSNFFNENFQKRPRQKLFEIQKKMFPQYWFELTQGFSLLFYGVGSKRNFLEEFAIDYLSPKIAYSQLAYENELQQNKPVNSIPCLILNGYNPSCNYRDVFKEITDLLVPAELTRSETKYWGNHVILQIQKMIDFYKNQPLDIKLILVVHNLDGPSIRKNTFQTMLSFLSVIRQIAIVASTDHIYAPLLWDNMKAQNYNFVFHDISNFEPSTVESTFQDVMKMGKSDTSSGAEGAKYVLQSLTVNSKKMYKLLIETQMQNMGNLSANTGPKRGTQRTGVELKLFNHLCAADFIASNEIALRSMLREFIEHKMANITKNNSGMEIIWVPYTYAELEKLLKTVLNTL
 | binds | binds |  | Orc2p, yeast two-hybrid fusion (AD-Orc2p) (protein, UniProt P32833 1-620) MLNGEDFVEHNDILSSPAKSRNVTPKRVDPHGERQLRRIHSSKKNLLERISLVGNERKNTSPDPALKPKTPSKAPRKRGRPRKIQEELTDRIKKDEKDTISSKKKRKLDKDTSGNVNEESKTSNNKQVMEKTGIKEKREREKIQVATTTYEDNVTPQTDDNFVSNSPEPPEPATPSKKSLTTNHDFTSPLKQIIMNNLKEYKDSTSPGKLTLSRNFTPTPVPKNKKLYQTSETKSASSFLDTFEGYFDQRKIVRTNAKSRHTMSMAPDVTREEFSLVSNFFNENFQKRPRQKLFEIQKKMFPQYWFELTQGFSLLFYGVGSKRNFLEEFAIDYLSPKIAYSQLAYENELQQNKPVNSIPCLILNGYNPSCNYRDVFKEITDLLVPAELTRSETKYWGNHVILQIQKMIDFYKNQPLDIKLILVVHNLDGPSIRKNTFQTMLSFLSVIRQIAIVASTDHIYAPLLWDNMKAQNYNFVFHDISNFEPSTVESTFQDVMKMGKSDTSSGAEGAKYVLQSLTVNSKKMYKLLIETQMQNMGNLSANTGPKRGTQRTGVELKLFNHLCAADFIASNEIALRSMLREFIEHKMANITKNNSGMEIIWVPYTYAELEKLLKTVLNTL

Reference: PMC9813392
